Test results taken from the supplement of paper PMC11417369.
± gives the standard deviation of the averaged measurements. The list shows a part of the results.

test system: PfAP2-I AP2 domain 3 (GST-tagged); assay: gcPBM binding intensity (ln(normalized median fluorescence intensity)); higher = stronger DNA binding
Summary of the method: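 The highest Masliner-normalised natural-log median intensity across replicate spots of either probe orientation is reported as binding intensity. GST-tagged P. falciparum DNA-binding domains expressed in E. coli were applied for 1 h to an Agilent 4 × 180k array of primer-extended double-stranded 36-bp intergenic genomic probes plus negative controls, and bound protein was detected with Alexa488 anti-GST antibody and scanned at 488 nm.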

Sequence	gcPBM binding intensity (ln)
TATATATATATTATATGTACACATTTGTGAATTATT [XGTACX_site5848]	8.98 ± 0.014
TATAGATAACAAAAGTGTACATGTTGTATACACATG [XGTACX_site3471]	7.76 ± 0.51
TATATATATAAACACACACACACACCCAAGCGTAGC [CACACA_site4210]	8.73 ± 0.34
AACAACTATTACTGCACACATTCTTACACTATATAA [CACACA_site654]	10.5 ± 0.45
TTTTTATTAAGACATGCATGGAAACGCACTATTTTA [TGCATGCA_site999]	9.615 ± 0.007
AATAAATAAATATATACACACATATATGTCTACATA [CACACA_site3158]	7.7 ± 0.43
TTTATATCATTTCTTAAAAAAAAGGAGGTAATAGAC [TGCATGCA_negctrl_site555]	8.81 ± 0.38
ATACGAAGTACGTACACACACTTATATGTTACTAAA [CACACA_site7812]	8.26 ± 0.23
TATATATGCATTAAATGATGTTCCTGTTTTTTAAAA [CACACA_negctrl_site1378]	8.15 ± 0.45
TTGCATTACGAACATACACACAGAATAACTGAAAAC [CACACA_site3025]	8.23 ± 0.69
TTCGATGAATATACAAGTACATATCCTTACGAACTG [XGTACX_site1650]	7.6 ± 0.42
TTAGTTTATTGGTACTGTACTTTTTTTTTCTCCATT [XGTACX_site8618]	8.02 ± 0.33
TTATTTAAAATTTTTATGCGTATATATATAGGAACA [CACACA_negctrl_site388]	8.05 ± 0.33
TATCATATATGAAGGTGTACGATTTATTATATAAAT [XGTACX_site7010]	7.87 ± 0.54
ATTTTTGAACGGTACAGTACAGAATTTAATTAACCC [XGTACX_site47]	7.99 ± 0.47
CACAAAATAAATTAAACACACAACATCATAGATGTA [CACACA_site4619]	7.21 ± 0.54
AATTTTTATTTGTACACACATACATATATATTATAT [CACACA_site993]	8.26 ± 0.45
ATATAATCAGCTTCTCTTTTATGCTAAAAAAAAAAA [CACACA_negctrl_site1310]	7.78 ± 0.59
ATAAATAATATAAATACACACTAAAAAAAATATATA [CACACA_site4456]	7.51 ± 0.61
TGTCATCATCTTAAATGTACAAAAAGGAAATATAAA [XGTACX_site1529]	8.09 ± 0.73
TTTTTATTTACACTTTTTATTTATATATTATGTACG [CACACA_negctrl_site158]	8.05 ± 0.57
TTTATATATTTCATAATACACACGAAAAAAAAAAAA [CACACA_site2970]	8.23 ± 0.86

Sequence	gcPBM binding intensity (ln)
TATTTGTAATATAACACACACAAAAAAAGACTCGGA [CACACA_site1681]	7.95 ± 0.63
TTTGTCAAATAATATTGTACTAAAAAATTTTGCCTT [XGTACX_site7485]	7.73 ± 0.37
ATACACACAGCCTAAACATGCATATAGAAAAAAGAA [TGCATGCA_site1028]	8.29 ± 0.49
TTTATTTACTATTAAAGTACTAAATCATATAATTAT [XGTACX_site2580]	7.49 ± 0.48
TGTTTATACATCAGGTGTACGCAAAATAATTGTATG [XGTACX_site206]	8.19 ± 0.16
TTAACACATGCTTGGTCACACACGTATGCATATTTA [CACACA_site2127]	8.01 ± 0.76
TATACATATACATATACACACACACCCATAAATAAA [CACACA_site8372]	8.73 ± 0.83
GTGTGATATAATTTTTTTAGAGCTTTATAATATTAT [CACACA_negctrl_site233]	8.12 ± 0.19
CAACCATTTGTAGGTAAACACACATTATTATTAATA [CACACA_site8842]	7.47 ± 0.46
TATGTTGATGATATTACACACCCAATGAGAAAAGGA [CACACA_site7060]	8.25 ± 0.52
AAGTTACAGAATATCACACATAAATTATCTGTATAT [CACACA_site5116]	7.55 ± 0.52
GTTAAGCAATATATATGTACTTATGGAATAGAAAAA [XGTACX_site3693]	8.06 ± 0.71
TCAATTAATTATTTTTGTACACAAGAATTACTGAAT [XGTACX_site6401]	7.77 ± 0.33
ATTATCTATCGTTTTTGTACTTACACCTTAATACAA [XGTACX_site7337]	8.48 ± 0.61
CTTTTTTTTTTTTTTGCGCACTGTTTAAAGGGAAAT [GTGCAC_site9815]	9.795 ± 0.049
ATATATATATAATAAAGTACAAATTCTAAATGATAT [XGTACX_site570]	8.73 ± 0.46
TATCTTATGTCTGAAAGTACAAATTTTTTTCTACTT [XGTACX_site2208]	7.52 ± 0.49
AAGATCGCATGAAATGAACACACATAAAAAAAATAT [CACACA_site9353]	7.92 ± 0.87
CGTTGGTATTAAAAGGTGCAATGAAATAATATATTA	10.8 ± 0.63
TAAAATTTATAAACTACACACATATATATAGTAATA [CACACA_site3728]	7.47 ± 0.48
TAAAAAATTATATTCACACACATACCCATATATATA [CACACA_site4458]	8.21 ± 0.69
AATGTAACAACTTTTTGTACTTAAGAAATAATAAAT [XGTACX_site3310]	7.64 ± 0.61
